Reference: patent publication EP2181998B1, “New benzothiazinone derivative and its use as antibacterial agent” (priority 2006, dated 2007)
≈ marks a conversion by molar mass, not a printed value.

Tested on: M. tuberculosis H37Rv
Test: MIC by the Alamar Blue method
Format: cell-based
Conditions: Mycobacterium tuberculosis

Question: How did the MIC turn out when `CC1COC2(CCN(c3nc(=O)c4cc(C(F)(F)F)cc([N+](=O)[O-])c4s3)CC2)O1` (stereo not shown) [Compound 2, 2-(2-methyl-1,4-dioxa-8-azaspiro[4.5]dec-8-yl)-8-nitro-6-(trifluoromethyl)-1,3-benzothiazin-4-one] was run?
Answer: The MIC was 0.03 µg/mL (≈ 0.0695 µM).
